Assay results from the supplement of paper PMC6135742.
Where “and” joins values, the source holds several entries; their conditions need not be identical. Equal entries are not always repeated. Structures can show the parent of a compound that is named as a salt. ± gives the standard deviation of the averaged measurements. Over roughly 2,600 compounds, “MBP+ mature oligodendrocyte number relative to DMSO vehicle control” has its median near -0.34; the highest 2% begin near 13. This is one part of the list.

tested on: jimpy (Plp1 jimpy) mouse iPSC-derived oligodendrocyte progenitor cells; assay: MBP+ mature oligodendrocyte number relative to DMSO vehicle control (SDs above negative control mean); higher = more surviving jimpy oligodendrocytes (rescue); conditions: 10 µM; 3 days
Method: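 Primary phenotypic screen of >3,000 bioactive compounds (Selleck L1700 and Sigma LO1280 libraries) at a single dose of 10 µM. Compounds were added to jimpy (Plp1 mutant) mouse iPSC-derived OPCs at the start of thyroid hormone-induced oligodendrocyte differentiation, one well per compound in 384-well plates. After 3 days cells were stained for MBP, Sox10 and DAPI and imaged with an Operetta system. MBP+ oligodendrocyte number and total cell number were expressed as the number of SDs above the mean of the DMSO negative control on the same plate (n=16 control wells per plate). Hits were defined as >=4 SD for oligodendrocytes and >=2 SD for total cells.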

SMILES | MBP+ mature oligodendrocyte number
Cn1ccnc1S [Methimazole] | -0.107
O=c1cc(-c2ccc(O)c(O)c2)oc2cc(O)cc(O)c12 [Luteolin] | -4.47
CC(=O)Nc1ccc(NC(=S)NC(=O)c2ccc(C(C)(C)C)cc2)cc1 [Tenovin-1] | 2.25
NCCCCNCCCN [Spermidine trihydrochloride] | -0.104
Nc1ncn([C@H]2C[C@H](O)[C@@H](CO)O2)c(=O)n1 [Decitabine] | -1.2
O=C(Cc1ccc(-c2ccc(OCCN3CCOCC3)cc2)cn1)NCc1ccccc1 | -5.77
N[C@H](CO)C(=O)O [D-Serine] | -0.461
O=C1Cc2cc(CCN3CCN(c4nsc5ccccc45)CC3)c(Cl)cc2N1 [Ziprasidone HCl] | 21.9
O=C1Cc2cc(CCN3CCN(c4nsc5ccccc45)CC3)c(Cl)cc2N1 [Ziprasidone hydrochloride monohydrate] | 11.7
CC(C)/N=c1\cc2n(-c3ccc(Cl)cc3)c3ccccc3nc-2cc1Nc1ccc(Cl)cc1 [Clofazimine] | -4.15
CO[C@@]1(NC(=O)CSCC#N)C(=O)N2C(C(=O)O)=C(CSc3nnnn3C)CS[C@@H]21 [Cefmetazole sodium] | 0.0385
C[C@@H]1[C@H](O)[C@@H](C)/C=C/C=C/C=C/C=C/C=C/C=C/C=C/[C@H](O[C@@H]2O[C@H](C)[C@@H](O)[C@H](N)[C@@H]2O)C[C@@H]2O[C@](O)(C[C@@H](O)C[C@@H](O)[C@H](O)CC[C@@H](O)C[C@@H](O)CC(=O)O[C@H]1C)C[C@H](O)[C@H]2C(=O)O [Amphotericin B] | 1.78
CCOC(=O)C(C)(C)Oc1ccc(Cl)cc1 [Clofibrate] | 0.667
O=c1cc(N2CCOCC2)oc2c1ccc1ccccc12 | -1.96
c1cnc2c(c1)ccc1cccnc12 [1,10-Phenanthroline monohydrate] | < -3.85
CC(C)NC[C@H](O)COc1ccc(CC(N)=O)cc1 [S(-)-Atenolol] | -0.236
Cc1cc(Nc2ccc(NC(=O)c3ccc(Nc4ccnc5ccccc45)cc3)cc2)nc(N)n1 | < -6.35
CCC(NC(C)C)C(O)c1ccc(O)c(O)c1 (configuration not stated) [Isotharine mesylate] | -1.23
CN1C2=CC(=O)/C(=N\NC(N)=O)C=C2CC1S(=O)(=O)O (configuration not stated) [Carbazochrome sodium sulfonate (AC-17)] | 3.28
CNC(CC(=O)O)C(=O)O [NMDA (N-Methyl-D-aspartic acid)] | 1.84
C[C@H](NC(=O)Cc1cc(F)cc(F)c1)C(=O)N[C@H](C(=O)OC(C)(C)C)c1ccccc1 | 1.79

SMILES | MBP+ mature oligodendrocyte number
CN1CCc2cccc3c2[C@H]1Cc1ccc(O)c(O)c1-3 [Apomorphine hydrochloride hemihydrate] | -2.99
CC(C)N(CCCNC(=O)Nc1ccc(C(C)(C)C)cc1)C[C@H]1O[C@@H](n2ccc3c(N)ncnc32)[C@H](O)[C@@H]1O | -3.9 and -3.23
C[C@H](NC(=O)[C@@H](O)c1cc(F)cc(F)c1)C(=O)N[C@@H]1C(=O)N(C)c2ccccc2-c2ccccc21 | 2.56
Cc1c(Cc2ccc3ccccc3n2)c2cc(F)ccc2n1CC(=O)O | 3.44
CO[C@@H](C(=O)N1Cc2[nH]nc(NC(=O)c3ccc(N4CCN(C)CC4)cc3)c2C1)c1ccccc1 | -6.61
CN1CCN(C2=Nc3cc(Cl)ccc3Nc3ccccc32)CC1 [Clozapine] | -2.03 ± 1.1
C=CC[C@H](N)C(=O)O [L-allylglycine] | -1.69
Brc1ccc([C@H]2CN3CCSC3=N2)cc1 [S(-)-p-Bromotetramisole oxalate] | -0.119
O=C(O)c1ccccc1Nc1ccccc1 [N-Phenylanthranilic acid] | -0.197
CC1CCc2c(N3CCC(O)CC3)c(F)cc3c(=O)c(C(=O)O)cn1c23 (configuration not stated) [Nadifloxacin] | 1.22
Clc1ccc(COC(Cn2ccnc2)c2ccc(Cl)cc2Cl)c(Cl)c1 (configuration not stated) [Miconazole] | -1.9
Clc1ccc(COC(Cn2ccnc2)c2ccc(Cl)cc2Cl)c(Cl)c1 (configuration not stated) [Miconazole Nitrate] | -3.62
NCC=CC(=O)O (stereo in doubt) [cis-4-Aminocrotonic acid] | 0.431
Cc1cc(=O)n(-c2ccccc2)n1C [Antipyrine] | -0.0546
CC(=O)[C@H]1CC[C@H]2[C@@H]3CC=C4C[C@@H](OS(=O)(=O)O)CC[C@]4(C)[C@H]3CC[C@]12C [Pregnenolone sulfate sodium] | 0.467
NC12CC3CC(CC(C3)C1)C2 [Amantadine HCl] | 0.451
NC12CC3CC(CC(C3)C1)C2 [Amantadine hydrochloride] | -0.276
N#C/C(=C\c1ccc(O)c(O)c1)C(=O)c1ccc(O)c(O)c1 [Tyrphostin AG 538] | -0.247
CO[C@H]1O[C@@H]2O[C@@]3(C)CC[C@H]4[C@H](C)CC[C@@H]([C@H]1C)[C@@]24OO3 [Artemether] | -1.19 ± 0.13
O=c1c2ccccc2oc2ccccc12 [Xanthone] | 2.35
CC1(C2CCCC2)Cc2cc(OCC(=O)O)c(Cl)c(Cl)c2C1=O (configuration not stated) | -0.559
